The list shows a part of the results. Many values rest on one well or one pass, so single values are uncertain.
These molecules were tested on WM1716 (assay: cell count relative to DMSO control; melanoma cells; higher = more viable cells). Settings: library dose: low library concentration; 72 h.
`C=CCNC1=C2C[C@@H](C)C[C@H](OC)[C@H](O)[C@@H](C)/C=C(\C)[C@H](OC(N)=O)[C@@H](OC)/C=C\C=C(/C)C(=O)NC(=CC1=O)C2=O` [Tanespimycin] + CC(C)CCN1c2nc(Nc3cc(F)c(O)c(F)c3)ncc2N(C)C(=O)C1C [BID1870] (first compound 0.002 µM, partner dose 0.2 µM) showed a cell count of 67.9%.
With `CS(=O)(=O)CCNCc1ccc(-c2ccc3ncnc(Nc4ccc(OCc5cccc(F)c5)c(Cl)c4)c3c2)o1` [lapatinib] + Nc1nc(F)nc2c1ncn2[C@@H]1O[C@H](CO)[C@@H](O)[C@@H]1O [fludarabine] (first compound 0.8 µM, partner dose 0.2 µM) the cell count was 114%.
Molecule `CNC(=O)c1cc(Oc2ccc(NC(=O)Nc3ccc(Cl)c(C(F)(F)F)c3)cc2)ccn1` [sorafenib] + C#Cc1cccc(Nc2ncnc3cc(OCCOC)c(OCCOC)cc23)c1 [erlotinib] (first compound 0.4 µM, partner dose 0.8 µM) has a cell count of 94.5%.
In the case of `CN1CCN(c2ccc3nc(-c4c(N)c5c(F)cccc5[nH]c4=O)[nH]c3c2)CC1` [Dovitinib] + O=C(O)c1ccc2c(c1)nc(Nc1cccc(Cl)c1)c1ccncc12 [CX4945] (first compound 0.1 µM, partner dose 0.4 µM), the cell count is reported as 111%.
`CN1CCN(c2ccc3nc(-c4c(N)c5c(F)cccc5[nH]c4=O)[nH]c3c2)CC1` [Dovitinib] + O=C(Nc1ccccc1)c1cc([N+](=O)[O-])ccc1Cl [GW9662] (first compound 0.1 µM, partner dose 2 µM) showed a cell count of 97%.
In the case of `C[C@@H](Oc1cc(-c2cnn(C3CCNCC3)c2)cnc1N)c1c(Cl)ccc(F)c1Cl` [Crizotinib] + NCC(=O)Nc1ccc(-n2nc(C(F)(F)F)cc2-c2ccc3c(ccc4ccccc43)c2)cc1 [OSU03012] (first compound 0.2 µM, partner dose 1 µM), the cell count is reported as 98%.
Molecule `CN1CCN(c2ccc3nc(-c4c(N)c5c(F)cccc5[nH]c4=O)[nH]c3c2)CC1` [Dovitinib] + Cn1nnc2c(C(N)=O)ncn2c1=O [temozolomide] (first compound 0.1 µM, partner dose 2 µM) has a cell count of 79.1%.
In the case of `CNC(=O)c1cc(Oc2ccc(NC(=O)Nc3ccc(Cl)c(C(F)(F)F)c3)cc2)ccn1` [sorafenib] + O=C(Nc1ccccc1)c1cc([N+](=O)[O-])ccc1Cl [GW9662] (first compound 0.4 µM, partner dose 2 µM), the cell count is reported as 91.8%.
Work on `CN1CCN(c2ccc3nc(-c4c(N)c5c(F)cccc5[nH]c4=O)[nH]c3c2)CC1` [Dovitinib] + O=C(O)[C@@H]1[O][Sb](=[O])([O][Sb]2(=[O])[O][C@H]([C@H](O)CO)[C@H](O)[C@H](C(=O)O)[O]2)[O][C@H]([C@H](O)CO)[C@@H]1O [stibogluconate] (first compound 0.1 µM, partner dose 2 µM) yielded a cell count of 79.5%.
Work on `CS(=O)(=O)CCNCc1ccc(-c2ccc3ncnc(Nc4ccc(OCc5cccc(F)c5)c(Cl)c4)c3c2)o1` [lapatinib] + CN(C)S(=O)(=O)c1ccc2c(c1)/C(=C/c1cc3c([nH]1)CCCC3)C(=O)N2 [SU6656] (first compound 0.8 µM, partner dose 0.4 µM) yielded a cell count of 123%.
With `C=CCNC1=C2C[C@@H](C)C[C@H](OC)[C@H](O)[C@@H](C)/C=C(\C)[C@H](OC(N)=O)[C@@H](OC)/C=C\C=C(/C)C(=O)NC(=CC1=O)C2=O` [Tanespimycin] + CCc1ccc(CCOc2ccc(CC3SC(=O)NC3=O)cc2)nc1 [pioglitazone] (first compound 0.002 µM, partner dose 2 µM) the cell count was 90.4%.
Molecule `CS(=O)(=O)CCNCc1ccc(-c2ccc3ncnc(Nc4ccc(OCc5cccc(F)c5)c(Cl)c4)c3c2)o1` [lapatinib] + COc1cc2ncnc(Nc3ccc(Oc4ccccc4)cc3)c2cc1OC [SrcI1] (first compound 0.8 µM, partner dose 2 µM) has a cell count of 135%.
For `CNC(=O)c1cc(Oc2ccc(NC(=O)Nc3ccc(Cl)c(C(F)(F)F)c3)cc2)ccn1` [sorafenib] + COc1cc(N2CCC(N3CCN(C)CC3)CC2)ccc1Nc1ncc(Cl)c(Nc2ccccc2S(=O)(=O)C(C)C)n1 [NVP-TAE684] (first compound 0.4 µM, partner dose 0.08 µM), the cell count was 104%.

— the supplement of paper PMC4604168 (melanoma cell lines)
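Further: cell number obtained by counting DAPI-stained nuclei in high-throughput microscope images with image analysis software, screen run in 1,536-well plates.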
